# Experimental data from ChEMBL document CHEMBL4888484, “Replenishing the malaria drug discovery pipeline: Screening and hit evaluation of the MMV Hit Generation Library 1 (HGL1) against asexual blood stage Plasmodium falciparum ,using a nano luciferase reporter read-out” (2022).
# Out of some 150,000 compounds screened, about 540 (0.36%) showed an effect of 50% or more. This is one part of the list.
# System: Plasmodium falciparum
# Assay: Primary screen in NF54 nanoGlo assay, in single point, at 2uM, 72h; a lower Z score goes with more inhibition
# Assay type: functional, Erythrocyte
# Conditions: timepoint 72 hour
Compound,% Inhibition [%],Z score
CC[C@@H](CC#N)Nc1ccc(C(F)(F)F)cn1,-1,0.09
CCCS(=O)(=O)N(C)C[C@H]1CC(=O)N(CC)C1,-13,2.41
COc1ccc(-c2cc(-c3nc4ccccc4[nH]3)c(-c3ccccc3)o2)cc1OC,0,-0.05
C[C@@]1(C(=O)NCc2ccc(F)cc2)Cn2cnc(C(=O)Nc3ccc(F)cc3Cl)c2C(=O)N1C1CC1,-13,1.3
Cc1ccsc1C(=O)NC[C@H](NC(=O)c1sccc1C)C1CC1,7,-0.92
O=C1CCC(C(=O)NC(Cc2ccccc2)c2nc3ccccc3o2)N1 (centres undefined),-9,1.26
CN(Cc1cccnc1)Cc1cc(-c2ccccc2)cs1,-8,0.9
O=C(Cc1n[nH]c(=O)c2cc(-c3ccc(F)cc3)nn12)NC1CCCC1,-11,1.43
Cc1c(-c2noc(C(=O)NCC[C@H](C)N3CCCCCC3)n2)oc2c(C)cccc12,-14,1.75
Nc1ccnc(Cn2c(=O)n(Cc3ccccc3)c3ccncc32)n1,28,-3.14
CCN1CC[C@H](CN(C)Cc2[nH]nc(C)c2Cl)C1,-1,0.12
Cc1ccc2c(c1)N[C@H](C(=O)N1CCN(c3cc(Cl)ccc3C)CC1)NS2(=O)=O,-6,1.2
CC[C@]1(c2nc(-c3ccncc3)no2)CCN(C(=O)OC(C)(C)C)C1,-8,0.72
CC(C)(C)OC(=O)n1cc2c(c1)C(=O)CCC2,1,-0.2
Cc1ccc(NC(=O)C2[C@H]3C=C[C@@]4(O3)C(C(=O)NC3CCCCC3)N(Cc3cccnc3)C(=O)[C@@H]24)cc1C (some centres undefined),-14,2.13
O=C(CCn1cnc2ccccc2c1=O)N1CCC(N2C(=O)COC2=O)CC1,-14,2.63
Cc1cccc(-n2nnc(-c3nc(-c4ccccn4)no3)c2N)c1C,-12,1.21
CC(C)N1CC[C@H](NC(=O)Nc2ccc(CC(F)(F)F)cc2)C1=O,-5,0.66
CC/C=C(\C)c1c(-c2ccccc2)ncn1CCCN1CCC(C(N)=O)CC1,2,-0.25
NC(=O)CN1CCC(NC(=O)N2CCC[C@H]2c2cccs2)CC1,-5,1.04
COCCn1cc(NC(=O)c2cccc3c2OCC3(C)C)cn1,-9,1.46
CC(=O)NS(=O)(=O)c1cc(Br)ccc1Cl,-14,1.55
